Measurements taken from paper PMC4115172.
Results are given in words; binding and its absence hold for the method and conditions named. In cells and extracts the contact can be indirect. Some binding calls cover weakened binding; strength is not graded here. Where a sequence is shown, tags or fusion partners need not be part of it.

Protein sequences, listed by entry. Tags and fused reporters are not part of them. Lines headed by an entry give the natural chain unless they say otherwise; changes in a name come on top. Chains listed by the source or under a name are the forms on record and can include a tag or linker. Residues count along the entry.
UniProt Q8TD43: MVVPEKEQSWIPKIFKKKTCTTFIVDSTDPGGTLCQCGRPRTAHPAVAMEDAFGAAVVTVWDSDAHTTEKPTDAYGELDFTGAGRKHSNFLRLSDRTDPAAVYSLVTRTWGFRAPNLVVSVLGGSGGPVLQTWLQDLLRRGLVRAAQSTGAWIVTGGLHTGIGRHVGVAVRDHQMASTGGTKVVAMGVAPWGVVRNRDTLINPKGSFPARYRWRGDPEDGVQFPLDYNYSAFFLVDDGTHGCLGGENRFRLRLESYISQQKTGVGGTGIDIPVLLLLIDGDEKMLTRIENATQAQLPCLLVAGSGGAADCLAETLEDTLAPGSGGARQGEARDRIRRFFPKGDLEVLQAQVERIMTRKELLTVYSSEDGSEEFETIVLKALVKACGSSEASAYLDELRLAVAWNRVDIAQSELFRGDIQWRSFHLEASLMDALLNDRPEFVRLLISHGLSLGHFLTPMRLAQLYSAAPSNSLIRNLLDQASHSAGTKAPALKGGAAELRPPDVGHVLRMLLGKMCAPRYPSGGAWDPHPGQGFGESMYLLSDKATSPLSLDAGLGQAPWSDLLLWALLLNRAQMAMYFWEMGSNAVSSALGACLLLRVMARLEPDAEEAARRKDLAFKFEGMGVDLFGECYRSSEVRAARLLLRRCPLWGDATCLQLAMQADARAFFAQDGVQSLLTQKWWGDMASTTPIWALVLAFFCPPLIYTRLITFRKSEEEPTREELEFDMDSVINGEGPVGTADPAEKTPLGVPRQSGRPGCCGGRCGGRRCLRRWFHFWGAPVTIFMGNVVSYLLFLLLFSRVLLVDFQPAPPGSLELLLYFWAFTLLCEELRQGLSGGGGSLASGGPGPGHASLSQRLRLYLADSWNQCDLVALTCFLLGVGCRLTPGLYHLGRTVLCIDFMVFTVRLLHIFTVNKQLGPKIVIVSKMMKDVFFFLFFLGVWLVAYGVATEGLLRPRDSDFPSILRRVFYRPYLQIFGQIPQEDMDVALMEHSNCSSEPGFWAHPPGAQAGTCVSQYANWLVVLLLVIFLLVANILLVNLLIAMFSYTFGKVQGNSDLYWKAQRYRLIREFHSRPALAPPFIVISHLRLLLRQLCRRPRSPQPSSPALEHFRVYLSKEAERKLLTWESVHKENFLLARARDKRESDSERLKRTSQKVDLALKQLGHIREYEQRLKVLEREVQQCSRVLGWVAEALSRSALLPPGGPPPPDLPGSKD
GFP-tagged N174 (GFP-TRPM4b-N174): residues 1-174 of Q8TD43
VC-TRPM4a (TRPM4a fused to the C-terminal half of Venus): residues 175-1214 of Q8TD43
GFP-TRPM4b-N174 S88A (Q8TD43-1, form named): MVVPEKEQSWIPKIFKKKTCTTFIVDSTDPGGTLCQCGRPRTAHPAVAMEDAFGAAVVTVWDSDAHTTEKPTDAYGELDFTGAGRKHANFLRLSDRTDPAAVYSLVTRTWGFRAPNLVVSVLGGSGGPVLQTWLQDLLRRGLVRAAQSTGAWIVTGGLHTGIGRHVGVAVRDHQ
GFP-TRPM4b-N174 T19A (Q8TD43-1, form named): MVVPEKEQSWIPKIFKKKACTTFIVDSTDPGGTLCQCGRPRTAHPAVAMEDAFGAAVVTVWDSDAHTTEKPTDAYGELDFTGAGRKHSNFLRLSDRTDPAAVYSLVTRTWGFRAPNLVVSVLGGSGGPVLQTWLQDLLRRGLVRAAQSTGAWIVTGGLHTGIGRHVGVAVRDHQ
GFP-TRPM4b-N174 T42A (Q8TD43-1, form named): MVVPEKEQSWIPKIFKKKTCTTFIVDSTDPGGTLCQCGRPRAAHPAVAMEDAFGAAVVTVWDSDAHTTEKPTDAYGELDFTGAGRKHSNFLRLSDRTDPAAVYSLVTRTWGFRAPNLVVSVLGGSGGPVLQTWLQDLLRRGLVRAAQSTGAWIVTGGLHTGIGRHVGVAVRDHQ

Experiments:
[1] = target: T1, GST-14-3-3γ (14-3-3γ fused with Glutathione-S-transferase) (human) (UniProt P61981); experiment: pull-down; GST-14-3-3γ purified from bacteria incubated 2 h with lysates of transfected cells, then glutathione-Sepharose 4B beads 2 h at 4°C; blotted with anti-GFP; only the target purified
T1 sequence: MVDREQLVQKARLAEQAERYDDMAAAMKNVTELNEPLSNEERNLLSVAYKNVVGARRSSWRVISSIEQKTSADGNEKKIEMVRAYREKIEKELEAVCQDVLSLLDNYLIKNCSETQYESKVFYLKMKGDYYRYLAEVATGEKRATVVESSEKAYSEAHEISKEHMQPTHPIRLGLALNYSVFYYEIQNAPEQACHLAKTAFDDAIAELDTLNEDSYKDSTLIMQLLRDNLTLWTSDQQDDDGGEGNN

[2] = target: T2, FLAG-tagged 14-3-3γ (FLAG-14-3-3γ) (human) (UniProt P61981); experiment: co-IP; lysates of co-transfected HEK293T cells, precipitated with anti-FLAG (M2) and protein A/G agarose at 4°C in 50 mM Tris-HCl pH 7.4, 150 mM NaCl, 5 mM EDTA, 1% NP-40; blotted with anti-GFP
T2 sequence: T1 sequence

[3] = target: GFP-tagged TRPM4b (GFP-TRPM4b) (not stated (human or mouse cDNA cloned)) (UniProt Q8TD43); experiment: co-IP; inverse experiment: lysates of co-transfected HEK293T cells precipitated with anti-GFP antibody, blotted with anti-FLAG
[4] = target: VC-TRPM4a (TRPM4a fused to the C-terminal half of Venus) (UniProt Q8TD43); experiment: split reporter; BiFC with split Venus halves (VN, VC), co-transfected HEK293T cells, fixed, confocal microscopy
[5] = target: VC-TRPM4b (TRPM4b fused to the C-terminal half of Venus) (not stated (human or mouse cDNA cloned)) (UniProt Q8TD43); experiment: as above

Question: For “GFP-TRPM4b-N174 S88A (from UniProt Q8TD43-1 1-174) (domain or fragment)”, which binding [1] is on record?
Answer: Its binding is “no binding”.

Question: With “GFP-TRPM4b-N174 T19A (from UniProt Q8TD43-1 1-174) (domain or fragment)” as the molecule, how does the binding [1] read?
Answer: The binding was “binds”.

Question: “GFP-TRPM4b-N174 T42A (from UniProt Q8TD43-1 1-174) (domain or fragment)” was tested. Which binding [1] did it give?
Answer: The binding was “binds”.

Question: For “GFP-tagged N174 (GFP-TRPM4b-N174) (from UniProt Q8TD43-1 1-174) (domain or fragment)”, which binding [1] is on record?
Answer: The binding was “binds”.

Question: What about the binding [2] of the same molecule?
Answer: Its binding is “binds”.

Question: How did the binding [2] turn out when “GFP-tagged TRPM4b (GFP-TRPM4b) (from UniProt Q8TD43-1 1-1214)” was run?
Answer: Its binding is “binds”.

B1: FLAG-tagged 14-3-3γ (FLAG-14-3-3γ) (protein, UniProt P61981 1-247)
chain: T1 sequence
Question: For B1, which binding [3] is on record?
Answer: The binding was “binds”.

B2: VN-14-3-3γ (14-3-3γ fused to the N-terminal half of Venus) (protein, UniProt P61981 1-247)
chain: T1 sequence
Question: Which results are given for B2?
Answer: binding [4]: binds weakly; binding [5]: binds
